From PubChem BioAssay AID1346428 (National Center for Advancing Translational Sciences (NCATS), 2018)
“And” between values parts separate entries of the source, which are not always exact repeats. Identical values can stand only once. Hit rate of the full screen: of about 48,000 compounds, about 1,200 (2.5%) were called active. Roughly 2% stayed inconclusive and do not appear here.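 The calls were made as follows: active = activation of at least 60% and not above a set upper limit (about 1 call in 100 departs from these limits); inconclusive = activation of 40% to 60%, or above that upper limit; inactive = activation under 40%.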 The list shows a part of the results.

What follows are compounds tested against Probable G-protein coupled receptor 32 (Homo sapiens) (UniProt O75388) (assay: qHTS for Agonists of Human Resolvin D1 Receptor DRV1). Settings: CHO-K1 GPR32 beta-arrestin PathHunter luminescence, 90 min; at 76.9 µM; stronger effect = higher value; zero percent set by DMSO-only wells.
Chain of UniProt O75388 (O75388 whole entry, looked up): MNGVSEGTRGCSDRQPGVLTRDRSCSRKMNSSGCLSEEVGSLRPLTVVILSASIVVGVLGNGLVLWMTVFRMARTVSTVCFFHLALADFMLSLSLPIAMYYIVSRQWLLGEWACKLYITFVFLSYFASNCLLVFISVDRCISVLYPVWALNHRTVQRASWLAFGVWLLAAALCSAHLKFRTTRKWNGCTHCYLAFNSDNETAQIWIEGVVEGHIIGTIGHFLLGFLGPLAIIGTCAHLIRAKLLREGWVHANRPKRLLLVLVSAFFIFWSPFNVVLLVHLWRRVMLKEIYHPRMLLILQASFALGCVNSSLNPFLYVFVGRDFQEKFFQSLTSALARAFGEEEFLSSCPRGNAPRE
Procedure, shortened: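 Luminescent readout of beta-Gal complementation quantifies ligand-induced beta-arrestin association with GPR32 in CHO-K1 cells; 90 min compound incubation at 37 °C, detection 1 h at room temperature.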
Also: 0% is about no effect.

activation, inactive:
Cc1ccc(-n2ncc3c(N4CCN(C)CC4)ncnc32)cc1Cl -3.49%
CCOc1ccc(NC(=O)CCS(=O)(=O)c2cccc3nonc23)cc1 37.1%
CCOC(=O)c1c(NC(=O)c2cc(C)on2)sc(C)c1C -6.01%
COc1ccc(CNC(=O)CCC(=O)N2CC3CCCN3c3ccccc32)c(OC)c1 (stereo not given) 11.4%
Cc1cc(C)cc(OCc2ccc(C(=O)Nc3ccccc3F)o2)c1 16.7%
CCc1cccc(NC(=O)CSc2ncccc2C(=O)Oc2ccccc2Cl)c1 -29.6%
Cc1cc(C)c2c(=O)cc(C(=O)Nc3sc4c(c3C(=O)NCc3cccnc3)CCCC4)oc2c1 -5.38%
CC(C)C12CN3CC(C(C)C)(CN(C1)C3c1ccc(OCc3ccccc3)cc1)C2=O (stereo not given) 2.77%
CC(C)n1c(SCC(=O)Nc2ccc(F)cc2)nc2c(oc3ccccc32)c1=O -22.9%
CCOc1ccccc1CNC(=O)c1ccc2c(c1)sc1nc(-c3cccc(OC)c3)cn12 -10.6%
CCC(Sc1nc2nccnc2c(=O)n1Cc1ccc(OC)cc1)C(=O)NC1CCCCC1 (stereo not given) -13.1%
CCOc1ccc(-n2c(SCC(=O)Nc3ccc(F)cc3)nc3c([nH]c4ccccc43)c2=O)cc1 3.62%
COC(=O)c1cc(S(=O)(=O)NCC2CCN(Cc3ccc(C)cc3)CC2)c[nH]1 -25.4%
CC(=O)c1cccc(NC(=O)c2ccc(-n3c(C)nnc3C)cc2)c1 -5.09%
Cc1ccc(CN2CCc3nc(N4CCN(C)CC4)ncc3C2)s1 -23.7%
CC(C)(C)CC(=O)NC1CC(=O)N(c2ccc3c(c2)OCCO3)C1 (stereo not given) 36.5%
O=C(c1ccc2c(c1)N(Cc1ccccc1F)C(=O)c1ccccc1S2=O)N1CCOCC1 (stereo not given) -9.63%
CC(=O)O[C@@H]1CC2C3CCc4cc(OC(=O)c5ccccc5)ccc4C3CCC2(C)[C@H]1OC(C)=O (stereo not given in full) 3.62%
Cc1ccc(-n2ncc3c(N4CCC(Cc5ccccc5)CC4)ncnc32)cc1 -4.95%
Cc1c(Cl)cccc1NC(=O)Cn1cnc2nc3c(cc2c1=O)CCCC3 -4.37%
O=C(NCC1CCCO1)c1c[nH]c2ccc(S(=O)(=O)Nc3cccc(C(F)(F)F)c3)cc2c1=O (stereo not given) -10.3%
CCc1ccc(C(=O)c2cn(CC(=O)Nc3ccc(C)c(C)c3)c3ccccc3c2=O)cc1 5.09%
Cc1cccc(N(C)C(=O)CSc2nc3ncccc3o2)c1 -4.82%
Cc1ccc2c(c1)cc1c(=O)n(CC(=O)N3CCCCC3)nc(C)n12 -0.0741%
CN(Cc1ccccc1)S(=O)(=O)c1nnc(NC(=O)c2ccccc2)s1 24.8%
COc1ccc2c(c1)c1c(c(=O)n(-c3ccccc3)c(=O)n1CC(=O)Nc1ccc(C)c(C)c1)n2C 2.15%
CCN(CC)c1ncnc2c1ncn2[C@@H]1O[C@H](COP(=O)(O)OP(=O)(O)C(Br)(Br)P(=O)(O)O)[C@@H](O)[C@H]1O 3.79%
N#Cc1ccc(CSc2nc3c(c(=O)[nH]2)CCCC3)cc1 2.23%
CC(/C=C/c1cccc(Oc2ccc(F)cc2)c1)N(O)C(N)=O (stereo not given) -6.05%
O=c1c(O)c(-c2ccc(O)cc2O)oc2cc(O)cc(O)c12 -1.65%
COc1ccc(C2CNC(=O)C2)cc1OC1CCCC1 (stereo not given) -12% and -2.11%
O=C(Nc1c(C(=O)Nc2ccccc2F)oc2ccccc12)c1cc2ccccc2o1 8.51%
Cc1ccc(C)c(CS(=O)(=O)c2cn(CC(=O)N(C(C)C)C(C)C)c3ccccc23)c1 -27.6%
COC(=O)CCn1cnc2onc(-c3cc(F)cc(F)c3)c2c1=O 13.4%
Fc1ccc2ncc3c(-c4ccccc4)n[nH]c3c2c1 -7.7%
CC(C)Sc1ncc(Cl)c(C(=O)Nc2ccc(S(=O)(=O)N(C)c3ccccc3)cc2)n1 -18.3%
Cn1ncc2c(Nc3cccc(F)c3)ncnc21 -17.4%
COc1cc(NC(=O)CN2CCN(CC(=O)Nc3ccc(F)cc3)CC2)cc(OC)c1 3.32%
COc1cc(C(CC(=O)NCCC(C)C)N2Cc3ccccc3C2=O)cc(OC)c1OC (stereo not given) -4.52%
Cc1ccc(Cn2c(C)c(CNCCCc3ccccc3)c(C(=O)O)c2C)cc1 32%
CCCCNC(=O)CSc1nnc(C)c2c(C)n(-c3ccccc3)nc12 -11.3%
CC1CCN(S(=O)(=O)c2ccc3c(c2)CCC(=O)N3CC(=O)Nc2cccc(C#N)c2)CC1 0.134%
CC(C)NC(=O)C1CCN(c2nc3ccccc3nc2C(F)(F)F)CC1 1.75%
Cc1ccc(C2=NN(CC(=O)NCCN(CC(C)C)CC(C)C)C(=O)CC2)cc1 -9.04%
Cc1ccc(-c2cc3c(n2-c2ccc(C)cc2)CC(C)(C)CC3=O)cc1 -6.98%
Cc1ccc(-c2noc(CNC(=O)c3ccccc3)n2)cc1 -5.41%
CCC1CN(C(=O)N2CCC(C(=O)NCc3ccccc3C)CC2)c2ccccc2O1 (stereo not given) -24.5%
O=C(NCc1ccccc1)c1ccc(CSc2nc3cccnc3n2Cc2ccccc2F)cc1 -23.9%
O=C(NCCOCCn1c(=O)oc2ccccc21)Nc1ccc(F)cc1 0%
COc1ccc(OCC(=O)Nc2cccc(-c3nc4ccccc4s3)c2C)cc1 -7.7%
COc1ccccc1OCC(=O)Nc1nc(-c2ccc(Br)cc2)ns1 -3.08%
Cc1nc(N2CCCC2)ncc1C(=O)Nc1ccc(F)cc1F 6.09%
Cc1cc2c(cc1S(=O)(=O)N(CCN(C)C)Cc1ccco1)OCC(=O)N2 -8.97%
Cc1ccc(S(=O)(=O)c2cn(C)c3cc(N4CCCC(C)C4)c(F)cc3c2=O)c(C)c1 (stereo not given) -25.3%
Cc1ccc(NC(=O)C2CCN(S(=O)(=O)c3c(C)noc3/C=C/c3ccco3)CC2)cc1C -27%
